1 molecule from paper PMC9630929 (Journal of medicinal chemistry, 2022) can be followed below.

The target of the test is His6-tagged second bromodomain of PBRM1 (PBRM1-BD2) (human, UniProt Q86U86 174-293). Put plainly: AlphaScreen or HTRF. (Bead proximity is the source of the signal in Alpha formats.)
UniProt Q86U86, sequence (Q86U86 174-293): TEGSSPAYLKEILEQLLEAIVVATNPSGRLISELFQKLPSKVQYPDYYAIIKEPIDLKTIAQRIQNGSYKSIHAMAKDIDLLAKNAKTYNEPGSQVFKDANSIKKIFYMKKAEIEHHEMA

B1: biotinylated H3K14Ac(1-20) peptide (peptide)
peptide: not shown
modifications: acetyl-lysine at K14; biotin on the added C-terminal lysine; C-terminal amide (CONH2); free N-terminus (NH2)
Turning to B1, the binding result was “binds”.
